The values that follow come from PubChem BioAssay AID488969 (Vanderbilt High Throughput Screening Facility, 2010).

Structures are written as SMILES. Over roughly 110,000 compounds, “z-score” has its median near -0.1; the highest 2% begin near 2. This is one part of the list. Calls of active or inactive are those of the source.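 The calls were made as follows: active = z-score in the third read window above 3 or below -3; inactive = the rest.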

The experiment has as its target Metabotropic glutamate receptor 8 (Rattus norvegicus) (UniProt P70579). The experiment can be described thus: rat mGluR8 modulators via GIRK flux, primary screen, cell-based, thallium flux, HTS (AID 488969). The following applies: HEK293 rat mGluR8, GIRK (G protein-gated inwardly rectifying potassium channel) thallium flux, FluoZin2; at 10 µM; stronger effect = higher value; submaximal glutamate (EC20) added with thallium.
UniProt P70579, sequence (P70579 whole entry, looked up): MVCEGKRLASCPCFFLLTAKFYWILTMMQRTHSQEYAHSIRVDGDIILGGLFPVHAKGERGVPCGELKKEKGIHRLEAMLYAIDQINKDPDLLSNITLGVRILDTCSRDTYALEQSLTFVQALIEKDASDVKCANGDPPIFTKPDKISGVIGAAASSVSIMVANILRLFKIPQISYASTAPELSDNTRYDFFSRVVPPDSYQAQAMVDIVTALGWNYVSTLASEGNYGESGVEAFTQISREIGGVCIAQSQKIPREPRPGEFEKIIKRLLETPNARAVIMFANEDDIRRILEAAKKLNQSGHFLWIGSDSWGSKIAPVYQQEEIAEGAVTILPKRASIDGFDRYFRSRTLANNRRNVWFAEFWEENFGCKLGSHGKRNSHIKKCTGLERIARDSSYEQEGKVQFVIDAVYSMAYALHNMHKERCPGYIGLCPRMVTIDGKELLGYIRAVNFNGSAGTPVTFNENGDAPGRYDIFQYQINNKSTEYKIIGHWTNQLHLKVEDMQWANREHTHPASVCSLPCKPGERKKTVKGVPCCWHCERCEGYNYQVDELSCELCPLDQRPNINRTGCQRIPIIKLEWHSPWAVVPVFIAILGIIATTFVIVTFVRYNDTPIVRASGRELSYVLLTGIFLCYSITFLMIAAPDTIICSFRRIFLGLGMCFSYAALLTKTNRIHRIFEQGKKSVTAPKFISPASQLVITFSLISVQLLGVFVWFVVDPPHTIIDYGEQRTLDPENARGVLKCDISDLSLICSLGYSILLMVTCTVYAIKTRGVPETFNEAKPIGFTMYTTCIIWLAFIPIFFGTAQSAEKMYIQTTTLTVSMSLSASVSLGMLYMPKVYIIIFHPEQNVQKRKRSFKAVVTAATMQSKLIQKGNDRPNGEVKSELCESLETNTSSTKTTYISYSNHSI
`Cn1c(Cl)nc2c1c(=O)n(Cc1cccc(Br)c1)c(=O)n2C` gave a z-score of -0.0966.

In turn, `Cc1nc2ccc(C(=O)N3CCN(c4ccccc4)CC3)cc2s1` displayed a z-score of -0.389. The figure for `COc1ccccc1NS(=O)(=O)c1ccc(NC(=O)c2nc3nc(C)cc(C(F)F)n3n2)cc1` is -0.251; for `COc1cccc(-c2cc(C(=O)NCc3ccc(Cl)cc3)no2)c1` it is 0.359; for `CCCc1nc2sc3c(c2c(=O)n1NC(=O)CCC(=O)O)CCCC3` it is 0.696. Then `O=C(NCCc1ccccc1)c1cc2ncc(Br)cn2n1`, with -0.293; and `COc1ccc(Nc2nc(C)cc(=O)[nH]2)c(OC)c1`, with 0.181. Compound `CCc1ccccc1NC(=S)N1CCC(C(=O)c2ccc(F)cc2)CC1` came in with a z-score of 0.202. The figure for `COc1ccc(C(=O)NC(=S)N(Cc2ccccc2)Cc2ccccc2)cc1` is active: 16.8; for `Cc1ccc(NC(=O)CCC(=O)OCC(=O)c2ccc(Oc3ccc([N+](=O)[O-])cc3)cc2)c(C)c1` it is 0.000298; for `O=C(Nc1nc2ccc(SC(F)F)cc2s1)c1ccc2c(c1)S(=O)(=O)c1ccccc1C2=O` it is -0.0834.

In turn, `COc1ccc(-c2nnc3n2N=C(C)CS3)cc1OC` showed a z-score of -0.0383. For `COc1cc2c3c(c1)/C(=C1/SC(NC(C)=O)=NC1=O)C(=O)N3C(C)(C)C=C2C`, the z-score is -0.174. The figure for `O=C(C1CCN(C2CC(=O)N(c3ccc(Cl)cc3)C2=O)CC1)N1CCOCC1` (centres undefined) is 0.478; for `COC(=O)c1cc(OC)c(OC)cc1NC(=O)c1cnccn1` it is -0.208.

Compound `CCCCCc1ccc(CC(=O)Nn2c(C)nc3ccccc3c2=O)cc1` had a z-score of 0.84. The figure for `CC1=C(C#N)C(=O)OC(C)(C)C1` is -0.482. Then `COC(=O)CN1C(=S)N(c2ccccc2)C(=O)C1CC(=O)Nc1ccc(Cl)cc1` (centres undefined), with -0.168. On to `CCn1c(SCC(=O)Nc2cc(C)on2)nc2c1c(=O)n(C)c(=O)n2C`, for which the z-score was -0.0494. Then `CC(C)Nc1nnc(SCC(=O)c2c(N)n(Cc3ccccc3)c(=O)n(C)c2=O)s1`, with -0.427. The figure for `O=C(Nc1sc2c(c1C(=O)O)CCC2)c1ccccc1` is -0.0696. Then `O=C(c1ccco1)N(CCC(c1ccccc1)c1ccco1)Cc1ccco1` (centres undefined), with -0.692; and `c1ccc(N2CCN(C3CCSC3)CC2)cc1` (centres undefined), with -0.119; and `CCc1cc2c(=O)nc3n(c2s1)Cc1ccccc1/C3=C(/O)c1ccc(F)cc1`, with 0.832. `CC(NC(=O)Nc1ccccc1O)(C(F)(F)F)C(F)(F)F` had a z-score of 0.0646. As for `O=C(Cn1cncn1)N/N=C/c1c2ccccc2cc2ccccc12`, the z-score was -0.0193. As for `Cc1c(NC(=S)N/N=C/c2cccc(O)c2)c(=O)n(-c2ccccc2)n1C`, the z-score is -0.201. Consider `Cc1cccc(NC(=O)C2CC(=O)OC23CCCC3)c1` (centres undefined), for which the z-score is -0.174.

Turning to `O=C(NC1CCCCC1)C(Cc1ccccc1)NS(=O)(=O)c1cccs1` (centres undefined), the z-score is -0.336.

`COc1ccc(-c2csc(NC(=O)CCCc3cccs3)n2)cc1` came in with a z-score of -0.0277.

Compound `O=C(NCCc1ccccc1)C1CC(c2ccccc2O)=NO1` (centres undefined) came in with a z-score of -0.373. Then `COc1ccc(NC(=O)c2ccc3c(c2)C(=O)N(Cc2cccnc2)C3=O)cc1`, with 0.241. Then `CC(=O)N1CCc2cc(Br)cc(S(=O)(=O)NCc3ccccn3)c21`, with 0.145.

`COCCCNc1nc2c(c(=O)[nH]c(=O)n2C)n1CC(O)COc1ccccc1` (centres undefined): the z-score is -0.217. `CCOC(=O)c1sc2nc(SC)nc(-c3ccc(Cl)cc3)c2c1N` returned a z-score of -0.108. The figure for `Cc1cccc(N2CCN(C(=O)c3ccc4nc[nH]c4c3)CC2)c1C` is -0.25; for `COc1ccc(NC(=O)c2c(Cl)n(C)c3ccccc23)cc1` it is -0.242. The figure for `O=c1[nH]c2cc3c(cc2cc1CN(CCc1ccccc1)Cc1nnnn1CC1CCCO1)OCO3` (centres undefined) is -0.544; for `Cc1c(N=C2SCC(=O)N2/N=C/c2ccccc2Cl)c(=O)n(-c2ccccc2)n1C` it is 0.339; for `Cc1ccc(NS(=O)(=O)c2cc(C(=O)N3CCOCC3)ccc2C)cc1` it is 0.142.

`CCN1CCN(c2c(Cl)cccc2NC(=O)c2ccc3c(c2)OCCO3)CC1` came in with a z-score of -0.091. Then `COc1cc(OC)cc(C(=O)NNC(=O)Cc2ccc(OC)c(S(=O)(=O)N3CCOCC3)c2)c1`, with -0.00238. `CCNC(=O)CN1c2cccc3cccc(c23)S1(=O)=O` gave a z-score of 0.487. Then `CC(C)(C)C1CCc2c(sc(NC(=O)C3CC=CCC3C(=O)O)c2C#N)C1` (centres undefined), with -0.0721. Then `CC(C)C(=O)N1CCC(CN=CC2=C(O)CC(C)(C)CC2=O)CC1`, with -0.187; and `CCOC(=O)c1sc(Nc2ccccc2)nc1C`, with -0.0511; and `COC(=O)c1sccc1NC(=O)CN(C)NS(=O)(=O)c1ccc(F)cc1`, with -0.846. Then `O/N=C\c1cccn1-c1ccc(Br)cc1`, with -0.477.

Compound `COc1cc(NC(=O)c2cccc([N+](=O)[O-])c2C)ccc1NC(=O)c1ccco1` had a z-score of -0.0609.

`Cc1cccc(Nc2nc(N)nc(CN3CCN(c4ccccc4F)CC3)n2)c1` yielded a z-score of 0.309.

`OCCN1CCN(C(=S)c2ccc(Cl)cc2)CC1`: the z-score is -0.061. The figure for `O=C(CCC(=O)OCC(=O)c1cccc([N+](=O)[O-])c1)Nc1ccccc1Cl` is 0.0825; for `CS(=O)(=O)N(Cc1ccc(C(=O)Nc2ccccc2Sc2ccccc2)cc1)c1ccccc1` it is -0.197. `Cc1cc(/C([O-])=C(/C(=S)Nc2ccccc2)[n+]2ccccc2)c(C)n1-c1ccccc1` came in with a z-score of -0.3. Compound `c1ccc(-c2nnc(SCc3nc4ccccc4[nH]3)n2Cc2ccco2)cc1` came in with a z-score of -0.166. Compound `CCCS(=O)(=O)N1CCN(C(=O)COc2ccccc2)CC1` returned a z-score of -0.226. Take `COc1ccc2c(c1OC)C(=O)N(c1ccc(C)c(C)c1)C2=O`: the z-score amounted to 0.105.

The compound `CNc1ccc(C(O)(C(F)(F)F)C(F)(F)F)cc1C(O)(C(F)(F)F)C(F)(F)F` registered a z-score of -0.247.

`O=C(c1cccc(-c2ccc(O)cc2)c1)N1CCOCC1` gave a z-score of -0.37. The figure for `CCCCNS(=O)(=O)c1ccc(NC(=O)C(Sc2ccccc2)c2ccccc2)cc1` (centres undefined) is 0.179; for `C=C(C)Cn1c(CCNC(=O)C(C)C)nc2ccccc21` it is -0.19. Then `N#Cc1ccc(C(=O)Nc2ccn(-c3ccccc3)n2)cc1`, with -0.322.

`CC12CCC(C(=O)Nc3ncc([N+](=O)[O-])s3)(OC1=O)C2(C)C` (centres undefined) yielded a z-score of 1.12. The figure for `Nc1nc2c(c3c1c(=O)oc1ccccc13)CCCCC2` is -1.02. Then `CCOC(=O)Cc1csc(NC(NC(=O)OCC)(C(F)(F)F)C(F)(F)F)n1`, with -0.104; and `Cc1ccc(C(=O)OCC(=O)Nc2ccccc2Sc2ccccc2)cc1C`, with -0.191. The figure for `CN1CCN(C(=O)Nc2cccc3ccccc23)CC1` is active: 3.3; for `CCn1c(CSc2nnc(C)n2-c2ccccc2)nc2cc(S(=O)(=O)N(C)C)ccc21` it is -0.251. In the case of `CCN(CCO)c1ccc(-n2c(N)c(C(=O)OC)c3nc4ccccc4nc32)cc1`, the z-score was -0.823.

Compound `O=C(c1cc2c(s1)-c1ccccc1OC2)N1CCCC1` displayed a z-score of -0.73. Then `CO/N=C/c1ccc(Oc2ccc(C)cc2)nc1`, with -0.345. Then `O=C(c1cccc(C(F)(F)F)c1)N1CCC(O)(CS(=O)(=O)Cc2ccccc2)CC1`, with 0.123; and `CCCCOc1ccc(C(=O)N2CCCCCC2)cc1`, with 0.0779; and `CC(=O)Nc1ccc(NC(=O)Cn2cnc3c(cnn3C(C)(C)C)c2=O)cc1`, with -0.329. The figure for `CC1(c2ccccc2)CC(C)(C)N(C(=O)CSc2nnc(N)s2)c2ccccc21` (centres undefined) is -0.521; for `CCOC(=O)C(Sc1n[nH]c(N)n1)c1ccccc1` (centres undefined) it is -0.282; for `Cc1ccc2[nH]cc(C(=O)CCl)c2c1` it is -0.0638.

`CCOc1ccc(NC(=O)C(C)O)c(NS(=O)(=O)c2ccc(CCNC(C)=O)cc2)c1` (centres undefined): the z-score was -0.0891. Then `CS(=O)(=O)N1CCN(C2Cc3ccccc3C2)CC1`, with -0.16; and `CCC(=O)Nc1ccc(C(=O)CSc2nc3ccc(C)cc3[nH]2)cc1`, with -0.633.

`CSCC[C@H](NC(=O)CCn1nnc2ccccc2c1=O)C(=O)O` showed a z-score of -0.473.

As to `O=C1OC(c2ccccc2)=N/C1=C\N1CCCCC1`, the z-score was 0.0708. The figure for `CCN(Cc1ccccc1)C(=O)CCCOc1ccccc1` is 0.0708; for `CCCCN(CC)CCNS(=O)(=O)c1ccc2c(c1)oc(=O)n2C` it is -0.341. Turning to `CC1Cc2ccccc2N1Cc1cc(=O)n2ccsc2n1` (centres undefined), the z-score amounted to 0.202. The figure for `CN(C)CCC(=O)c1ccc2c(c1)OCO2` is -0.297; for `CCN1CCN(CCC(=O)Nc2ccccc2OC)CC1` it is -1.36; for `CC(=O)OC(C(=O)Nc1ccccc1C)C(OC(C)=O)C(OC(C)=O)C(OC(C)=O)C(=O)Nc1ccccc1C` (centres undefined) it is -0.014. Then `COC(=O)/C(=C\C(=O)c1ccccc1)Nc1cccc(C(F)(F)F)c1`, with 0.432. Then `O=C(NCc1ccccn1)c1ccc(CNS(=O)(=O)c2cccc(Cl)c2)cc1`, with -0.352; and `COc1ccc(-n2c3c(cc(C(=O)N4CCC(C)CC4)c2=O)C(=O)CC(C)(C)C3)cc1`, with -0.382. Turning to `C=CCNC(=S)NNC(=O)c1ccccc1`, the z-score is -0.00102. The figure for `N#Cc1c(NC(=O)CSc2ccccn2)oc(-c2ccccc2)c1-c1ccccc1` is -0.344; for `CC1CCN(C(=O)Cn2cc(C#N)c3ccccc32)CC1` it is -0.156; for `Cc1ccccc1OCC(O)Cn1c(NCc2ccco2)nc2c1c(=O)[nH]c(=O)n2C` (centres undefined) it is -1.06.

Turning to `COc1ccc(C2C(C(C)=O)=C(O)C(=O)N2CCO)c(OC)c1` (centres undefined), the z-score was -0.182. For `O=c1[nH]c2cc3c(cc2cc1C(c1nnnn1CC1CCCO1)N1CCCCCC1)OCCO3` (centres undefined), the z-score was -0.542.

As to `Cc1noc(C)c1C(=O)Nc1ccccc1-c1ccccc1`, the z-score was determined as 0.0781. The figure for `Cc1cc(C)n(C(=O)c2ccc(C)o2)n1` is -0.224; for `O=C(NCc1ccccn1)c1cc2ccccn2n1` it is 0.0675. For the compound `COc1cccc(C2C=C(c3ccc(OC)cc3OC)Nc3nnnn32)c1` (centres undefined), the z-score is -0.65.

The compound `COC(=O)CC1COc2ccccc2N1C(=O)c1ccc(C(C)(C)C)cc1` (centres undefined) gave a z-score of -0.191. The figure for `O=C1/C(=C\c2ccc(Br)o2)SC(=Nc2ccccc2)N1c1ccccc1` is -0.222.

Compound `O=C(O)C1CCCCN1S(=O)(=O)c1ccc(Cl)s1` (centres undefined) had a z-score of -0.235. Then `O=C1/C(=C/c2cccnc2)SC(=S)N1c1ccccc1`, with -0.374; and `O=C(COC(=O)c1cccnc1Cl)NCc1ccc2c(c1)OCO2`, with -0.0987.

Compound `CCOC(=O)N1CCC(NC(=O)CCc2c(C)nc3c(c(C)nn3C(C)(C)C)c2C)CC1` showed a z-score of -0.421. `Cc1ccc(-n2nc3c(c2NC(=O)CCC2CCCCC2)CS(=O)C3)cc1` (centres undefined) registered a z-score of -0.015. Consider `CC(C)OCCCNC(=O)c1cc2c(s1)CS(=O)(=O)C2`, for which the z-score is -0.548.
